# In PubChem BioAssay AID504339 (National Center for Advancing Translational Sciences (NCATS), 2011):
# About 17,000 (4.4%) of roughly 390,000 compounds were called active. This list was built around the results that the source calls inconclusive (neither active nor inactive); the mix of calls is not that of the screen. Calls come from the whole dose curve; as a rule, active = well fitted inhibition curve with a large enough effect; inconclusive = small, poorly fitted or top-dose-only effect; inactive = no such curve, though single readings can be large or run the other way. Where the call is inconclusive, the potency comes from a doubtful curve fit.
# Target: Lysine-specific demethylase 4A (Homo sapiens) (UniProt O75164)
# Sequence of UniProt O75164 (O75164 whole entry, looked up, the tested form may be a part): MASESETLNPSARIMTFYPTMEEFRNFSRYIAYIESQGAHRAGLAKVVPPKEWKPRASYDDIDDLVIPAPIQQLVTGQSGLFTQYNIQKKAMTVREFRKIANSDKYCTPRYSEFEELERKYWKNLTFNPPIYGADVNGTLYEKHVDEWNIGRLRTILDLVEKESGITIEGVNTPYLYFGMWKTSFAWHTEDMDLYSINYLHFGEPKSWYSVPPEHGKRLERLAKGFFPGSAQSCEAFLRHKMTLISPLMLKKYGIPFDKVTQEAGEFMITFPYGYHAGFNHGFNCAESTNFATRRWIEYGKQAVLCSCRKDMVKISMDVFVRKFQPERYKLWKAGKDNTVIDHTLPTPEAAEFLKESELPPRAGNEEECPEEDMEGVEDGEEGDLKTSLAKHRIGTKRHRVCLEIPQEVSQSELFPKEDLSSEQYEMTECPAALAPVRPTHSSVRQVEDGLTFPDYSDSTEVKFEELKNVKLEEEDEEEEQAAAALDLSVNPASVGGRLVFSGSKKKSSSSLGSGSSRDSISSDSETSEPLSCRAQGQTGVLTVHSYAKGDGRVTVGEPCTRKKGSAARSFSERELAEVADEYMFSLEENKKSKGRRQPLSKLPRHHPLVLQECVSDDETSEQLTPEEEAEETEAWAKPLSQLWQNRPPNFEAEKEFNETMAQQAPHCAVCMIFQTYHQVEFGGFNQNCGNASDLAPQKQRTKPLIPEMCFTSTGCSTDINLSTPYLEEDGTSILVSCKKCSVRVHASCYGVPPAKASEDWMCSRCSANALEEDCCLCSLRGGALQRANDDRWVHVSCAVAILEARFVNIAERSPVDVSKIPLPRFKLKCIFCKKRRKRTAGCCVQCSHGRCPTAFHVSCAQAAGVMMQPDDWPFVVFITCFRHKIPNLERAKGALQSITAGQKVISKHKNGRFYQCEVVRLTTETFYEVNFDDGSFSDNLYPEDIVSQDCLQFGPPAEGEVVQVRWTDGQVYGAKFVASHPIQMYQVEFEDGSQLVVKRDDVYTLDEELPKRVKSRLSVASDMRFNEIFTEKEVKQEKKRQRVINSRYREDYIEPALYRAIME
# Test: qHTS Assay for Inhibitors of JMJD2A-Tudor Domain; note: nearly all actives have a fitted effect of over 50% in size
# Conditions: AlphaScreen JMJD2A-Tudor / H3K4me3 peptide binding; series mostly up to 114 µM
# Potency is the fitted concentration of half-maximal effect; tags give direction and shape of the fitted curve.
row,Structure (SMILES),Potency
1,Oc1ccc(Br)cc1C1C=C(c2ccc3c(c2)OCO3)NC(c2ccc(Cl)cc2)N1 (stereo unspecified),"inconclusive: 8.91 µM [inhibitor, partial curve]"
2,O=C(CN1CCN(S(=O)(=O)c2ccccc2)CC1)Nc1cccc(C(F)(F)F)c1,active: 79.4 µM
3,COc1ccc(/C=N/n2c(-c3n[nH]c4c3CCC4)n[nH]c2=S)cc1,active: 10 µM
4,Cc1nc(N2CCOCC2)nc(N2CCN(c3ccccc3)CC2)c1[N+](=O)[O-],"inconclusive: 35.5 µM [inhibitor, partial curve]"
5,CC(Oc1cccc(Cl)c1)C(=O)Nc1ccccc1N1CCCC1 (stereo unspecified),"inconclusive: 50.1 µM [inhibitor, partial curve]"
6,Cc1ccc(-c2nc3c(C)cccn3c2Nc2ccccc2C)s1,active: 44.7 µM
7,CC(C)(C)C1c2[nH]c3ccccc3c2CCN1Cc1cccc(OCCO)c1 (stereo unspecified),"inconclusive: 56.2 µM [inhibitor, partial curve]"
8,C#CC1CN(Cc2ccccc2)CC(C#C)N1C (stereo unspecified),inactive
9,O=c1[nH][nH]c(=S)n1C1CCCCC1,active: 2.51 µM
10,COc1ccc(OC)c(NC(=O)CSc2nnc(CNc3ccc(C)cc3C)o2)c1,"inconclusive: 39.8 µM [inhibitor, partial curve]"
11,Cc1ccc2c(c1)COc1c3ccc(C(=O)N4CCOCC4)cc3nn1-2,inactive
12,Cc1c(Cl)cccc1NC(=O)C1CCCN(c2nnc(-n3c(C)ccc3C)s2)C1 (stereo unspecified),inactive
13,CCOC(=O)c1ccc(S(=O)(=O)N2CCN(CC(O)COc3cccc(C(C)=O)c3)CC2)cc1 (stereo unspecified),active: 17.8 µM
14,CCc1ccc(C2CC(c3ccc(C)cc3)n3nc(N)nc3N2)cc1 (stereo unspecified),"inconclusive: 25.1 µM [inhibitor, full curve]"
15,N#CCCn1cc(/C=C2\NC(=S)N(c3ccccc3)C2=O)c(-c2ccc(F)cc2)n1,"inconclusive: 50.1 µM [inhibitor, partial curve]"
16,CCOc1ccc(CNc2ccc(N3CCN(Cc4ccccc4)CC3)cc2)cc1,active: 8.91 µM
17,O=C(COC(=O)c1cc([N+](=O)[O-])ccc1NCCO)Nc1cccc(S(=O)(=O)N2CCCC2)c1,"inconclusive: 14.1 µM [inhibitor, partial curve, poor fit]"
18,Cc1ccc(NC(=O)CSc2nnc(-c3ccccn3)n2N)c(Br)c1,"inconclusive: 17.8 µM [inhibitor, single point]"
19,CCC(C)Nc1nc(-c2c[nH]c3ccccc23)cs1 (stereo unspecified),active: 35.5 µM
20,Cc1ccc(-c2ccc(CCC(=O)O)n2-c2ccc(C(C)C)cc2)cc1,"inconclusive: 50.1 µM [inhibitor, partial curve]"
21,O=C(Nc1cccnc1)Nc1ccc(Cl)cc1Cl,"inconclusive: 89.1 µM [inhibitor, single point]"
22,Nc1c(-c2nc(-c3ccccc3)no2)nnn1CC(=O)Nc1ccccc1,"inconclusive: 56.2 µM [inhibitor, partial curve]"
23,COc1cccc(NC(=O)Cc2csc(NC(=O)Nc3ccccc3OC)n2)c1,"inconclusive: 35.5 µM [inhibitor, partial curve]"

row,Structure (SMILES),Potency
1,CCOc1ccccc1NC(=O)N1CCN(S(=O)(=O)c2ccc3c(ccn3C)c2)CC1,inactive
2,O=C(O)CCCN1C(=O)C(=O)/C(=C(/O)c2ccccc2)C1/C=C/c1ccccc1 (stereo unspecified),active: 44.7 µM
3,O=C(CSc1ccc(Cl)cc1)Nc1ccc(-c2nc3ccccc3[nH]2)cc1,"inconclusive: 56.2 µM [inhibitor, single point]"
4,CC(C)c1ccc(/C=C2\SC(=S)N(CC(=O)NCCCN3CCOCC3)C2=O)cc1,"inconclusive: 17.8 µM [inhibitor, full curve]"
5,O=C(CSc1ccc2nnc(-c3cccs3)n2n1)N1CCCC1,inactive
6,N/C(=N\OC(=O)CCCc1ccccc1)c1cccnc1,inactive
7,COc1ccc2c(c1)c1c(c(=O)n(CCc3ccccc3)c(=O)n1Cc1ccc(Cl)cc1)n2C,inactive
8,FC(F)(F)c1ccc(/C=N/n2c(COc3ccccc3)n[nH]c2=S)cc1,"inconclusive: 50.1 µM [inhibitor, partial curve]"
9,OCCN(CCO)CC(O)CN1c2ccccc2Sc2ccccc21 (stereo unspecified),"inconclusive: 89.1 µM [inhibitor, partial curve, poor fit]"
10,O=[N+]([O-])c1cccc(C(=S)N2CCN(c3ccccc3F)CC2)c1,"inconclusive: 39.8 µM [inhibitor, partial curve]"
11,Cc1ccc(OCc2n[nH]c(=S)n2C2CCCCC2)cc1,active: 56.2 µM
12,CCOc1ccccc1N1CC(c2nc3ccccc3n2CCOc2ccc(C(C)(C)C)cc2)CC1=O (stereo unspecified),"inconclusive: 15.8 µM [inhibitor, full curve]"
13,CCOC(=O)c1c2c(n(Cc3ccccc3)c1C)C(=O)C(=O)c1ccccc1-2,active: 7.08 µM
14,O=S(=O)(c1ccccc1)c1nc(-c2ccco2)oc1NCc1ccco1,"inconclusive: 56.2 µM [inhibitor, partial curve]"
15,Cc1cccc(C2C3=C(CCCC3=O)N=C3c4ccccc4C(=O)C32)c1 (stereo unspecified),"inconclusive: 35.5 µM [inhibitor, full curve]"
16,CC(C)c1ccc(CNC(=O)C(=O)NCC2CCCO2)cc1 (stereo unspecified),inactive
17,COC(=O)CCN1CCN(S(=O)(=O)c2ccccc2Br)CC1,active: 0.794 µM
18,O=C(O)c1cn(C2CCCCC2)c2ccccc2c1=O,"inconclusive: 89.1 µM [inhibitor, single point]"
19,O=[N+]([O-])c1ccc(Nc2c3ccccc3nc3ccccc23)cc1,"inconclusive: 12.6 µM [inhibitor, full curve]"
20,CCOc1ccc(CNn2cnnc2)cc1,"inconclusive: 28.2 µM [inhibitor, partial curve]"
21,COc1ccc(OC)c(N/C(C)=C/C(=O)c2ccccc2)c1,"inconclusive: 56.2 µM [inhibitor, partial curve]"
22,CC1CCCN(C(=O)C2CCN(CC(C)c3ccccc3)CC2)C1 (stereo unspecified),active: 3.55 µM
23,CC1CCCN(C(C(=O)NC2CCCCC2)c2cc3c(cc2[N+](=O)[O-])OCO3)C1 (stereo unspecified),"inconclusive: 63.1 µM [inhibitor, partial curve, poor fit]"
